# Laboratory results as given in the supplement of paper PMC3334620.
# Whole data set: some 33,000 sequences, median “E-score (-0.5 to 0.5)” near -0.021, cut for the highest 2% near 0.32. The list shows a part of the results.
# Molecular target: T1, Zap1 (UniProt P47043)
# T1 sequence: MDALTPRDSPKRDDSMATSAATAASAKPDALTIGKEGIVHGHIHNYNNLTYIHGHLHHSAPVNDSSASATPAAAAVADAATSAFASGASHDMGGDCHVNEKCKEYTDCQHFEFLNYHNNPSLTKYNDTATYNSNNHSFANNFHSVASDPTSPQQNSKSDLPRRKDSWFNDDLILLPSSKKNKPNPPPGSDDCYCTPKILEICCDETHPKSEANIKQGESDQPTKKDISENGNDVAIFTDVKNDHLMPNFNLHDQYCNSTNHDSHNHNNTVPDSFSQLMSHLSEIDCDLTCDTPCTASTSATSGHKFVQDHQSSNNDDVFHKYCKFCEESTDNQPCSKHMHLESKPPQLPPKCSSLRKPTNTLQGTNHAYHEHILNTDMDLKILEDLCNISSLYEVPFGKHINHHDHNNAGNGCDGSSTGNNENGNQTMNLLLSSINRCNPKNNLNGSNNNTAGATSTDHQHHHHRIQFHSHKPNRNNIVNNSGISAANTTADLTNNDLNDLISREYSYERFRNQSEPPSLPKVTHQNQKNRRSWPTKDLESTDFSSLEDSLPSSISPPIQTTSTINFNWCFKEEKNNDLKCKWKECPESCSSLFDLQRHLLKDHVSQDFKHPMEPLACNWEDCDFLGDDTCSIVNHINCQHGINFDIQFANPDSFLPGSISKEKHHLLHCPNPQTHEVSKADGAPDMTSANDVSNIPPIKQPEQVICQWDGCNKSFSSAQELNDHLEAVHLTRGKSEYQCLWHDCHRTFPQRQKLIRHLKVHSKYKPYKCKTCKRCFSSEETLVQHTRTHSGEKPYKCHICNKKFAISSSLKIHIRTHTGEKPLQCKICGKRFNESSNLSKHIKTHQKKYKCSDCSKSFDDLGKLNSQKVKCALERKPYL
# Assay: PBM E-score (8-mer binding enrichment) (E-score (-0.5 to 0.5)); higher = stronger / more preferred TF binding; most listed sequences are background and not binding sites
# Conditions: protein concentration: 200 nM; construct: GST-full length
# Summary of the method: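 GST-tagged yeast TFs (full-length or DNA-binding domain) were made by PURExpress in vitro transcription/translation and applied at about 100-200 nM to universal all-10-mer Agilent arrays. The arrays were made double-stranded by primer extension, on fresh or once-stripped slides. Bound protein was detected with fluorescent anti-GST, and scans were normalised with masliner. Each ungapped eight-base word, pooled with its reverse complement, received an E-score (modified Wilcoxon-Mann-Whitney statistic) from the Universal PBM Analysis Suite.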
row,Sequence,PBM E-score
1,AACACATC,0.0331
2,GGTTACTA,0.447
3,ATCCGACG,-0.171
4,AGAGCGCT,-0.183
5,GCGACGAA,0.0484
6,ACGTAAAA,0.0729
7,CCTTTAAA,0.175
8,AAGCAATG,0.0748
9,TAAGGCTA,0.0834
10,AAGAGATT,-0.163
11,CCGCACGC,-0.21
12,ACCTTACA,0.284
13,GGAGATAA,0.0611
14,ATAGTGCC,-0.0934
15,CCCTTGTC,0.0604
16,AGGATCCC,-0.0702
17,GCTCCTAA,-0.175
18,ACACGCAG,-0.123
19,GGGATAAA,0.232
20,GCAACTGA,-0.0509
21,GTCGGAAC,0.00238
22,GCTCAGAA,0.194
23,CCCTCGCA,-0.0324
24,GGTCAAAC,0.234
25,ACTTTAAG,0.128

row,Sequence,PBM E-score
1,CCTTTTGC,0.228
2,ACGCCTGC,-0.274
3,GCATCCGC,-0.114
4,CCTCACTA,0.0133
5,AAACAGAA,0.0736
6,ATCGGCCC,-0.134
7,TATTAGGA,0.0916
8,AATTCCAA,0.055
9,CTCATACA,-0.0881
10,CGGCGTAA,0.00864
11,CTTCCAGA,-0.0848
12,GCATGTGA,-0.149
13,ATGGGTCG,0.0454
14,GACATGCA,-0.0782
15,GTCGCATA,0.0804
16,CGACAGCA,-0.0872
17,AGGCCTTC,-0.0507
18,CGACCTTC,0.0461
19,ACCTGAGT,0.0343
20,AGATACAG,0.0524
21,GATCTCGA,-0.127
22,ACTGGCAG,-0.215
23,CAGGAATC,-0.0261
24,TATAATGA,0.105
25,ATTAAGTG,0.162

row,Sequence,PBM E-score
1,GGTTCAAA,0.0699
2,CGCACCAG,-0.00742
3,AGAACCAG,0.0863
4,CGTATCCC,0.0228
5,GCGCGGGA,-0.13
6,GCGCCACC,-0.00555
7,ATTTCATC,0.135
8,GCGTTACA,0.126
9,ATCTGTGG,-0.207
10,GCAGCAGA,-0.141
11,ATAATCCG,-0.0477
12,GTTTTCTA,0.151
13,AGTACTTC,0.148
14,GCCCTGTA,-0.0104
15,GAAAAAGA,0.148
16,ATTCCGGA,0.0632
17,GCAAAAAA,0.21
18,CAGAGGAG,-0.276
19,CAACGCTC,-0.0729
20,CCTTGGCC,-0.269
21,GCATATTA,0.0185
22,AGTCGTAG,-0.0544
23,GCGTTTCC,-0.205
24,GAGTTCTA,0.0389
25,ATGATTCG,-0.0783

row,Sequence,PBM E-score
1,CTACCTTA,0.327
2,TACAGGAA,0.101
3,GTACGTCA,-0.216
4,AGCGTGAT,-0.0712
5,ATTGGCCG,-0.236
6,CCTTTCAC,0.103
7,CAGACGCC,-0.0695
8,AGGCGAAG,-0.288
9,CCGCCCAA,-0.106
10,GCGTTCCA,-0.145
11,ATTTGCAG,0.113
12,ACATTGCT,0.0363
13,CGGTCCTA,-0.0133
14,TGGGGAAA,0.0534
15,AATTCTAA,0.149
16,CTTGTTGA,0.124
17,AAACATCG,-0.172
18,GGATTCAA,-0.191
19,CATAAAAA,0.171
20,CCTAAATC,0.156
21,CAGCATAA,-0.0697
22,TAGCCACA,0.001
23,TCTTCCAA,-0.00655
24,GACGAGGC,-0.22
25,AACACCTT,0.192

row,Sequence,PBM E-score
1,AGTAGACT,-0.104
2,ATAGGTTA,0.46
3,GAATACTA,0.144
4,GACGTTCC,-0.195
5,CGTGCGGA,-0.251
6,AATCCGTG,0.0184
7,CAGGAGAA,-0.00707
8,CACAGATG,-0.212
9,GGTACACA,0.113
10,CTAGGTTC,0.0156
11,CCTGTGAG,0.133
12,CCTTATCA,0.114
13,GAACCGGC,-0.145
14,ACACCGCG,-0.175
15,ACCCAGAC,0.00258
16,ACATTCTC,-0.0126
17,GCCCATCC,-0.338
18,AATCGGCT,0.0585
19,CAGGGCAG,-0.0677
20,AGTATTCG,-0.0303
21,CTTATTAA,0.0579
22,CAAAGTTC,-0.141
23,CGGCGGCC,-0.197
24,TACTAACA,0.235
25,CATTGTGC,-0.0523

row,Sequence,PBM E-score
1,CAGGTGCG,0.0458
2,AGGTCCCC,0.203
3,AGTCGTGC,-0.255
4,AGTTGCAC,-0.037
5,ATGTTAGC,-0.1
6,ACTCAATC,0.108
7,TAGTTAGA,0.058
8,AGAACGGC,-0.132
9,CCATGAAC,0.14
10,TATGGACA,0.192
11,ACGTTCGC,-0.191
12,AATCAACG,0.0163
13,ACTGGCTC,-0.227
14,GGTTGTAC,0.336
15,CAAAAATA,0.198
16,GTCGAAAC,-0.0759
17,ATGAACGC,0.131
18,ATAGCGTC,-0.0103
19,GCCACGCC,0.00642
20,CACTTCGA,-0.0374
21,CTACAGGC,-0.258
22,GCGAGGGA,-0.154
23,ACATTTCC,0.0405
24,CCAAATCC,-0.2
25,ACATGTTG,0.0732

row,Sequence,PBM E-score
1,GATTCAGC,-0.225
2,GCCTAGAA,0.0412
3,TCCTATAA,0.0713
4,GAAGACAA,-0.0349
5,TGAAGAAA,0.0892
6,CAATAATG,-0.00451
7,CCACATCC,-0.166
8,CAGACTGG,-0.0742
9,CTATCCGA,-0.124
10,GGCACAAC,0.0738
11,TGTTCCAA,0.105
12,CAAAGGTA,0.267
13,ACTACTGC,-0.277
14,CCTCACAC,-0.188
15,CGAGCTCC,-0.12
16,GCATGAGA,-0.0936
17,CCAACTCA,-0.0111
18,ACATTGAC,-0.0853
19,GTTCCTAA,0.0431
20,AGGGGTGA,0.219
21,CAAACGGG,0.0184
22,GCGTAAAC,0.00957
